Results taken from article PMC4336329 (PLoS ONE, 2015).
Hit rate of the full screen: of about 310,000 compounds, about 2,200 (0.71%) showed an effect of 50% or more. The effect is printed as a negative number. This is one part of the list.

target: human ether-à-go-go-related gene (hERG) potassium channel (human, UniProt Q12809); assay: primary screen, population patch clamp on CHO cells stably expressing hERG
Sequence (Q12809 whole entry, looked up): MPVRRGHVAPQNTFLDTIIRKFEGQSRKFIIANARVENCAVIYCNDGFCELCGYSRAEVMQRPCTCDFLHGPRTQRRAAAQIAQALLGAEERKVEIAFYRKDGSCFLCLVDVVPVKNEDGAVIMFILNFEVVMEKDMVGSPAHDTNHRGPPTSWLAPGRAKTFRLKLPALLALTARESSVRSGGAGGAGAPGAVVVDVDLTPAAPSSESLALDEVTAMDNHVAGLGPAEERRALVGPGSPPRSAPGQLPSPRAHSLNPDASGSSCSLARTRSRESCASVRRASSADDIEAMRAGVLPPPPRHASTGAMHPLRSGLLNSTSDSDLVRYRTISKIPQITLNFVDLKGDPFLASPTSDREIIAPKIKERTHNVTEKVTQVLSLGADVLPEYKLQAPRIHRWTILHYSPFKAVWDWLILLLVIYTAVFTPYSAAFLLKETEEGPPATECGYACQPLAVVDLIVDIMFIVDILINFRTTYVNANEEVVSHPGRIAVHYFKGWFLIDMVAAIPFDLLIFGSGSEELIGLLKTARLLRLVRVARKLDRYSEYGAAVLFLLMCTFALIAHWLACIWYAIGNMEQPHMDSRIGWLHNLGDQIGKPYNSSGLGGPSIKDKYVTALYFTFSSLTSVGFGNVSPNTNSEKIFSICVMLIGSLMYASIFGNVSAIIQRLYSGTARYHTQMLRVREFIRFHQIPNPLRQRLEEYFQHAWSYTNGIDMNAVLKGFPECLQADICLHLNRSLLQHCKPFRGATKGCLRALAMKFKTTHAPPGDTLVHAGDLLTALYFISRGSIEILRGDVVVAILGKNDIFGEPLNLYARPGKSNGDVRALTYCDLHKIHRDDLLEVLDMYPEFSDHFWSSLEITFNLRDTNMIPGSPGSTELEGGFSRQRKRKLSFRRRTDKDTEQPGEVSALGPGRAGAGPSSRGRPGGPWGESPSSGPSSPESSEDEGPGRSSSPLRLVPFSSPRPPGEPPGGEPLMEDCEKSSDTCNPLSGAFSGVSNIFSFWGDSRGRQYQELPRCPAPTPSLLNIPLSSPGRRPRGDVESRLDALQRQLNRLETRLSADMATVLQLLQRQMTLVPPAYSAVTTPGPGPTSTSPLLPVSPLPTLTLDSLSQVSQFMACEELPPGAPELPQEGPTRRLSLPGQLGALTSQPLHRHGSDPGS

Going from `C/C(=C\C(=O)c1ccc(Br)cc1)N1CCCCC1` to `CCOc1ccc(NS(=O)(=O)c2ccc(C(=O)N3CCCCCC3)cc2)cc1`, the “hERG current change (%, negative = inhibition) at 1uM” value falls from 5.38% to -6.49%.

First: CCN(CC)S(=O)(=O)c1ccc(OC(C)C)c(N)c1
Second: Cc1cnc(C(=O)Nc2ccc(S(=O)(=O)NCC(C)C)cc2)cn1
The “hERG current change (%, negative = inhibition) at 1uM” value of the first is lower: -1.66% for the first, 26.8% for the second.

Compared with `O=C(CN(c1ccc(F)cc1)S(=O)(=O)c1ccccc1)NCc1ccco1`, `Cc1ccc(OCC(=O)NCc2ccco2)c([N+](=O)[O-])n1` is lower in “hERG current change (%, negative = inhibition) at 1uM” value: 18.5% for the first, -20.3% for the second.

Going from `CSc1ccc(CN(C)C(=O)c2cc(=O)c3ccccc3o2)cc1` to `Cc1ccccc1C(=O)NC1CCN(CC(=O)NCc2ccc(F)cc2)CC1`, the “hERG current change (%, negative = inhibition) at 1uM” value falls from -23% to -31.6%.

Compared with `O=C(NC1CCCCC1)N1CCCCCC1`, `CC1(C(=O)NC2CCCC2)CCC(=O)N1CCC1=CCCCC1` (stereo not shown) is higher in “hERG current change (%, negative = inhibition) at 1uM” value: 6.21% for the first, 10.3% for the second.

Going from `Cc1sc2nc(CSC(C)C(=O)Nc3ccc(C(N)=O)cc3)[nH]c(=O)c2c1C` (stereo not shown) to `CCCC(C)C(=O)Nc1nc(C)c(-c2csc(Nc3ccc(Cl)cc3)n2)s1` (stereo not shown), the “hERG current change (%, negative = inhibition) at 1uM” value rises from 7.08% to 7.95%.

First: CC(C)C(=O)NNS(=O)(=O)c1ccccc1
Second: Cc1ccc(S(=O)(=O)NC2=NCN(CCOC(=O)c3ccccc3)CN2)cc1
The “hERG current change (%, negative = inhibition) at 1uM” value of the first is higher: 15.7% for the first, 1.5% for the second.

Going from `COc1cc(/C=C/C(=O)OCC(=O)N2c3ccccc3NC(=O)C2(C)C)cc(OC)c1OC` to `COc1cccc(/C=C/C(=O)OCC(=O)c2ccc(S(=O)(=O)N3CCCCC3)cc2)c1OC`, the “hERG current change (%, negative = inhibition) at 1uM” value rises from 3.14% to 12.6%.

Going from `O=C1CCCC(O)=C1N=Nc1ccc2c(c1)OCO2` to `CCC(C)(C)NC(=O)C(c1ccco1)N(C(=O)Cn1nnc2ccccc21)c1ccc2c(c1)OCO2` (stereo not shown), the “hERG current change (%, negative = inhibition) at 1uM” value rises from 6.26% to 13.9%.

Going from `Cc1cc(C)c(S(=O)(=O)N2CCOCC2)cc1C` to `COc1ccc(CC(=O)NC(C)(C)C)cc1S(=O)(=O)N1CCOCC1`, the “hERG current change (%, negative = inhibition) at 1uM” value rises from 11.3% to 14.8%.

Compared with `COc1ccc(Cl)cc1NC(=O)C1CCCO1` (stereo not shown), `COc1ccc(NC(=O)C2CC(c3ccccc3O)=NO2)cc1OC` (stereo not shown) is higher in “hERG current change (%, negative = inhibition) at 1uM” value: 7.19% for the first, 12% for the second.

Compared with `Cc1ccc(O)c(N=Cc2ccc(C)s2)c1`, `Cc1ccnc(NS(=O)(=O)c2ccc(N=Cc3c(O)n(C)c(=O)n(C)c3=O)cc2)n1` is higher in “hERG current change (%, negative = inhibition) at 1uM” value: 6.42% for the first, 6.72% for the second.

Going from `O=C(CSc1ncn[nH]1)Nc1nnc(-c2ccccc2)s1` to `O=C(CSc1cn[nH]n1)Nc1ccccc1C(=O)O`, the “hERG current change (%, negative = inhibition) at 1uM” value rises from 6% to 11.5%.

Compared with `COc1ccc(CCNC(=O)c2ccc3c(=O)n(Cc4ccco4)c(=S)[nH]c3c2)cc1OC`, `COc1cc2c3nnc(-c4ccc(F)cc4)c-3cn(Cc3cccc(C)c3)c2cc1OC` is lower in “hERG current change (%, negative = inhibition) at 1uM” value: 13.6% for the first, 9.33% for the second.

Compared with `CCc1ccc(N2C(=O)c3sc4nnc(-c5ccccc5)c(=O)n4c3C2=O)cc1`, `COc1cccc(-c2noc(CCC(=O)NCCc3ccccc3)n2)c1` is higher in “hERG current change (%, negative = inhibition) at 1uM” value: 7.96% for the first, 10.5% for the second.

Going from `CCCC(c1nnnn1Cc1cccs1)N1CCN(c2ccc(OC)cc2)CC1` (stereo not shown) to `Cc1cccc(C)c1NCC(=O)N1CCN(Cc2ccccc2)CC1.Cl`, the “hERG current change (%, negative = inhibition) at 1uM” value falls from 12% to 10.6%.

Compared with `Cn1c(=O)n(C)c2cc(/C=C3/SC(=O)N(CC(=O)N4CCOCC4)C3=O)ccc21`, `CC(Oc1ccc(-c2nnco2)cc1)C(=O)N1CCOCC1` (stereo not shown) is higher in “hERG current change (%, negative = inhibition) at 1uM” value: -0.578% for the first, 17.5% for the second.

Going from `CC(=O)Nc1ccc(S(=O)(=O)Nc2ccc(S(=O)(=O)Nc3nccs3)cc2)cc1` to `Cc1nc2nc(C)c(NS(=O)(=O)c3ccc(C4CCCCC4)cc3)c(=O)n2[nH]1`, the “hERG current change (%, negative = inhibition) at 1uM” value falls from 16.4% to 12.9%.

First: Cl.NCCC(=O)N1c2ccccc2Sc2ccc(Cl)cc21
Second: Cl.NC(Cc1nc2ccccc2[nH]1)c1ccc(Cl)cc1 (stereo not shown)
The “hERG current change (%, negative = inhibition) at 1uM” value of the first is lower: -1.47% for the first, -0.346% for the second.

Going from `Cc1cc(C)c(C#N)c(SCC(=O)CC(=O)OC(C)C)n1` to `CCCCNC(=O)c1onc(CSc2ccc(C)c(C)c2)c1C(=O)O`, the “hERG current change (%, negative = inhibition) at 1uM” value rises from 5.61% to 16.8%.

First: CCc1cccc(C)c1NC(=S)NCc1cccn1C
Second: Cc1cccnc1NC(=O)Cn1nc([N+](=O)[O-])cc1C
The “hERG current change (%, negative = inhibition) at 1uM” value of the first is higher: 6.34% for the first, 4.82% for the second.

First: CC(C)c1c(C(=O)N/N=C2\CCc3ccccc32)nnn1-c1nonc1N
Second: Cc1c(NC2=NC3(CCCCC3)Cc3ccccc32)c(=O)n(-c2ccccc2)n1C
The “hERG current change (%, negative = inhibition) at 1uM” value of the first is higher: 15.4% for the first, -8.67% for the second.

Compared with `Br.Cc1ccc2nc(-c3ccc(N4C(=N)SC5CS(=O)(=O)CC54)cc3)sc2c1` (stereo not shown), `O=C(c1cccc2ccccc12)C1CCCN(Cc2ccon2)C1` (stereo not shown) is lower in “hERG current change (%, negative = inhibition) at 1uM” value: 9.31% for the first, 2.29% for the second.

First: CC1(C)CC(=O)C2=C(C1)OC(N)=C(C#N)C2c1ccccc1[N+](=O)[O-] (stereo not shown)
Second: CN(CC(=O)Nc1ccccc1Cl)C(=O)CSc1nnc(-c2ccco2)o1
The “hERG current change (%, negative = inhibition) at 1uM” value of the first is lower: -12.5% for the first, 7.49% for the second.

Going from `O=S(=O)(c1cccc2nonc12)N1CCCCC1` to `CCCS(=O)(=O)N1CCC(C(=O)NCc2cccnc2)CC1`, the “hERG current change (%, negative = inhibition) at 1uM” value falls from 14.1% to 12.2%.

Compared with `CCNc1cc(Cl)nc(SC)n1`, `COc1ccc(OC)c(CC(NC(C)=O)C(=O)NC2CCN(c3nc(OC)nc(OC)n3)CC2)c1` (stereo not shown) is higher in “hERG current change (%, negative = inhibition) at 1uM” value: -3.26% for the first, 25% for the second.

First: O=C(CCCNc1ccccc1)N/N=C/c1cccs1
Second: O=C(C[n+]1ccccc1)N/N=C/c1ccc(C(=O)O)cc1.[Cl-]
The “hERG current change (%, negative = inhibition) at 1uM” value of the first is higher: 14% for the first, 7.13% for the second.

Compared with `Cc1c(CCC(=O)NCCCn2ccnc2)c(=O)oc2c(C)c3occ(C(C)(C)C)c3cc12`, `COc1cc2c(cc1OC)C(C(=O)NCCN(C)C)C(c1cccs1)N(C)C2=O` (stereo not shown) is higher in “hERG current change (%, negative = inhibition) at 1uM” value: -24.7% for the first, 3.56% for the second.

First: CC(=O)N(CCOc1ccccc1)CCOc1ccccc1
Second: O=C(O)c1sc2cccc(Cl)c2c1Cl
The “hERG current change (%, negative = inhibition) at 1uM” value of the first is lower: 9.29% for the first, 12.8% for the second.
